The values that follow come from PubChem BioAssay AID485344 (National Center for Advancing Translational Sciences (NCATS), 2010).

Among all 340,000 compounds or so, about 6,900 (2%) were called active. Cut-off read from the data, not from the text of the source: active = inhibition above about 30%; inactive = below that, where a call was filed. The entries are a selection whose mix differs from that of the whole data set. Entries without a call were filed so in the source.

By inhibition is commonly meant the relative decrease from the control value, in per cent.

The target in this experiment is D(2) dopamine receptor (Homo sapiens) (UniProt P14416). As to the kind of experiment: HTS Assay for Allosteric Antagonists of the Human D2 Dopamine Receptor: Primary Screen for Antagonists. Note: 0% is about no effect. The settings on record: HEK293 TREx D2 cells, calcium flux, dopamine EC80; at 10 µM; stronger effect = higher value. The method in brief: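 Dopamine at EC80 is the agonist stimulus; test compounds precede it by 180 s. Calcium flux read kinetically in a force-coupled, inducible HEK293 T-REx D2 cell line.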
UniProt P14416, sequence (P14416 whole entry, looked up): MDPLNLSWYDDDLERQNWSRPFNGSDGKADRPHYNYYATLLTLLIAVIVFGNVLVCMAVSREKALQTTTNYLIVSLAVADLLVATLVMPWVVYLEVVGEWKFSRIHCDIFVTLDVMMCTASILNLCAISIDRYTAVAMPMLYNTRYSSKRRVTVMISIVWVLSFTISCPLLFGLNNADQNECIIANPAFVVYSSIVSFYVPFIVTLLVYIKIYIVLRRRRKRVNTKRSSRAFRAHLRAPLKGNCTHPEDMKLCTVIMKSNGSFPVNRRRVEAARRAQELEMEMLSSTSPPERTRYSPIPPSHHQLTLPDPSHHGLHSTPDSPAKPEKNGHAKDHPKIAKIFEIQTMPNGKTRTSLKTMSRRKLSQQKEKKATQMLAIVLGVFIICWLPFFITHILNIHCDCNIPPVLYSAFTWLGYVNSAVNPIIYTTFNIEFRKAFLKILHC
On to `COc1ccc(-c2cc(OC(=O)c3ccc(F)cc3)c3c(C)oc(C)c3c(=O)c2)cc1OC`, for which the inhibition was 19.1%.

As to `COc1ccc(-c2noc(CSc3nnc(-c4ccccc4)n3-c3ccc(F)cc3)n2)c(OC)c1`, the inhibition is -2.79%.

Consider `Cc1ccc(Cc2c(C)nn(-c3nc(C)c(C(=O)N4CCCCC4C)s3)c2C)cc1` (stereo not given), for which the inhibition is 4.87%.

In the case of `COc1ccc(NC(=O)C2CCCN(S(=O)(=O)c3c(C)n[nH]c3C)C2)cc1OC` (stereo not given), the inhibition was -9.05%.

As to `CC(C)NC(=O)c1ccc(C2SCC(=O)N2Cc2ccccc2)cc1` (stereo not given), the inhibition is active: 50.3%.

As for `CCOC(=O)c1ccccc1NC(=O)N1CCCN(S(=O)(=O)c2ccc3c(ccn3CC)c2)CC1`, the inhibition is -12%.

`Cc1cccc(-c2nc(CCNC(=O)c3ccccc3Br)cs2)c1`: the inhibition was found to be 20.2%.

`CCOc1ccc(-c2nc3c(C#N)c[nH]n3c2NC2CCCCC2)cc1`: the inhibition was -3.03%.

Turning to `O=C(Nc1cc(F)ccc1F)c1ccc2c(c1)nnn2C1CCCC1`, the inhibition came out at 1.09%.

Turning to `CCc1ccc(CNC(=O)C2CCCN(c3nn4cc(-c5ccc(F)cc5)nc4s3)C2)cc1` (stereo not given), the inhibition is 5.05%.

As to `Cc1ccc(C)c(N2CCN(CCCNC(=O)CCC(=O)N3CCOc4ccc(Cl)cc43)CC2)c1`, the inhibition is active: 55.7%.

For `CCOC(=O)C1CCN(C(=O)C2CCN(c3nnc(C)c4c(C)n(-c5ccccc5)nc34)CC2)CC1`, the inhibition is -9.56%.

Take `COCC(=O)N(Cc1nc2sc(C)c(C)c2c(=O)[nH]1)C1CCCCC1`: the inhibition was active: 31.1%.

As to `CCCC(=O)Nc1cc(C(=O)NCc2ccc(OC)cc2)ccc1S(=O)(=O)c1ccc(Cl)cc1`, the inhibition was found to be 9.57%.

For `Cc1nn(CC(=O)NCc2ccccc2Cl)c(=O)c2cccn12`, the inhibition worked out at 19.8%.

Turning to `COC(=O)c1sccc1S(=O)(=O)N(CC(=O)NCc1ccccc1)c1ccc(C)c(C)c1`, the inhibition amounted to 8.87%.

As for `CCOC(=O)c1c(C)c(-c2ccccc2)n(CC(=O)Nc2cccc(F)c2)c1C`, the inhibition is -3.19%.

In the case of `CCOc1ccc(NC(=O)CCS(=O)(=O)c2ccc(Br)s2)cc1`, the inhibition is -15.1%.

For the compound `Cc1cccc(NC(=O)CN2C(=O)COc3ccc(S(=O)(=O)N4CCC(C)CC4)cc32)c1C`, the inhibition was found to be 18.5%.

Consider `O=C(c1ccccc1)c1ccc2c(c1)OCCOCCOCCOCCO2`, for which the inhibition is active: 50.3%.

With `Cc1ccc(S(=O)(=O)N(CC(=O)N2CCc3ccccc3C2)c2ccc(C)c(C)c2)cc1`, the inhibition was -22.5%.

Take `O=C(Nc1noc2ccccc12)c1c(F)cccc1F`: the inhibition was -6.44%.

`O=C(Cn1c(N2CCN(C/C=C/c3ccccc3)CC2)nc2ccccc21)c1ccccc1`: the inhibition was active: 47.6%.

Take `CCCCNC(=O)CCn1c(=O)c2cccn2c2ccc(F)cc21`: the inhibition came out at 10.3%.

Take `CCOC(=O)CNC(=O)c1cc2c(=O)n3cccc(C)c3nc2s1`: the inhibition is -8.18%.

`CCCn1c2ccccc2c2cnn(CC(=O)NCCc3ccc(OCC)c(OCC)c3)c(=O)c21`: the inhibition was found to be 11.9%.

In the case of `COc1cccc(C2CC(=O)Nc3c2c(=O)nc2c(C)cccn32)c1` (stereo not given), the inhibition was found to be 7.2%.

Take `CCOc1cc(CNCCc2ccc(S(N)(=O)=O)cc2)ccc1OCc1ccc(Cl)cc1`: the inhibition was active: 64.9%.

Turning to `Cc1ccc(N2C(=O)C3C(C2=O)C(C(=O)c2ccc(Cl)cc2)N2CCCC32)cc1` (stereo not given), the inhibition was active: 33.2%.

Regarding `O=C(Nc1ncc(Cc2ccc(Cl)cc2)s1)c1ccc2c(c1)CC(c1ccccc1)OC2=O` (stereo not given), the inhibition was -14.7%.

For the compound `COc1ccc(Nc2ncc(C(=O)Nc3cc(Cl)c(OC)cc3OC)c3ccccc23)cc1`, the inhibition was -4.07%.

Consider `CCOc1ccc(N2CC(C(=O)NCCc3ccc(S(N)(=O)=O)cc3)CC2=O)cc1` (stereo not given), for which the inhibition was active: 37.8%.

Take `C/C(=N\NC(=O)c1nnn(-c2nonc2N)c1-c1ccc2c(c1)OCO2)c1cccs1`: the inhibition is active: 36.8%.

Take `CC(=O)N1CCCc2cc(S(=O)(=O)N3CCCC(C(=O)Nc4cccc(F)c4)C3)ccc21` (stereo not given): the inhibition is 4.58%.

As to `O=c1c2cc3c(cc2n(Cc2cccc(Cl)c2)c(=O)n1Cc1nc(-c2ccccc2)no1)OCO3`, the inhibition amounted to 10.2%.

For the compound `COc1ccc(N2CCN(C(=O)c3ccc(Nc4nc5ccccc5n5nnnc45)cc3)CC2)cc1`, the inhibition was -17.1%.

Take `CCOc1ccc(NC(=O)CSc2ncc3c(n2)-c2cc(Cl)ccc2N(C)S3(=O)=O)cc1`: the inhibition was -1.08%.

With `CCN(CC(=O)NCc1ccc(Cl)cc1)C(=O)COc1cccc(Cl)c1`, the inhibition was active: 33.1%.

Turning to `CC1=C(C(=O)NCc2ccc(C)cc2)C2(CCCCC2)OC1=O`, the inhibition amounted to 17.4%.

In the case of `Cc1ccc2cccc(NC(=O)C(C)Oc3ccc(C)c(C)c3)c2n1` (stereo not given), the inhibition stood at 19.1%.

Regarding `Cc1noc(Cn2c(=O)c3ccccc3n(CC(=O)Nc3ccc(Cl)cc3)c2=O)n1`, the inhibition was 7.28%.

In the case of `O=C(Nc1cc(Cl)ccc1Cl)C1(c2cccs2)CCOCC1`, the inhibition came out at 17.3%.

Turning to `CC(=O)Nc1ccc(S(=O)(=O)NC2(C(F)(F)F)C(=O)Nc3c2c(=O)[nH]c(=O)n3-c2ccc(C)c(C)c2)cc1` (stereo not given), the inhibition is -9.34%.

Regarding `Cc1cccc(NC(=O)CCNS(=O)(=O)c2cccc3nonc23)c1`, the inhibition was -7.22%.

In the case of `CCN1c2ccccc2-c2nc(SCC(=O)Nc3c(C)cc(C)cc3C)ncc2S1(=O)=O`, the inhibition is 3.23%.

For `CCN(CC)CCOC(=O)c1ccc(Cl)cc1Cl`, the inhibition is active: 32.7%.

Regarding `COc1cccc(-n2c(-c3ccco3)nc3c(cnn3-c3ccc(C)cc3)c2=O)c1`, the inhibition was 13.8%.

As for `Cc1ccc(C(=O)CSc2nnc(-c3ccccc3)n2-c2ccccc2)cc1`, the inhibition amounted to 0.85%.

On to `CCOc1ccc(C(=O)c2cn(Cc3ccc(OC)cc3)c3cc(OC)c(OC)cc3c2=O)cc1`, for which the inhibition is -10.2%.

As to `CCOc1ccc(NS(=O)(=O)c2ccc3[nH]cc(C(=O)NC4CCCC4)c(=O)c3c2)cc1`, the inhibition is -2.48%.

For `CC(NC(=O)c1cccc(NC(=O)c2nsc3ccccc23)c1)c1ccccc1` (stereo not given), the inhibition was 4.38%.

With `COc1ccc2c(c1)Cc1sc(NC(=O)c3cccc(F)c3)nc1-2`, the inhibition was -11.7%.

Take `Cc1ccc(/C=N/Nc2nncc(-c3ccccc3)n2)o1`: the inhibition is active: 50.6%.

On to `Cc1cc(NC(=O)c2ccccc2)ncc1NC(=O)c1cccs1`, for which the inhibition was active: 36.4%.

As for `COc1ccc(C(=O)Nc2ccc3oc(-c4ccc(OC)cc4)nc3c2)cc1`, the inhibition is -23.4%.

In the case of `CCc1cccc(NC(c2nnc(-c3ccccc3)o2)c2ccc(F)cc2Cl)c1` (stereo not given), the inhibition is -1%.

In the case of `Cc1ccc(NC(=O)NCC2CCN(Cc3cccc(Cl)c3)CC2)cc1Cl`, the inhibition stood at 17.5%.

Regarding `CCCC(=O)Nc1cc(-c2nc3cccnc3s2)ccc1C`, the inhibition was determined as 6.99%.

For `Cc1ccccc1OCC(=O)Nc1ccc2nc(SCCOc3ccccc3)sc2c1`, the inhibition is -21.4%.

For `O=C(CSc1nc2ccccc2nc1Cc1ccc(Cl)cc1)N1CCN(c2ccccc2F)CC1`, the inhibition was -28.1%.

As for `O=[N+]([O-])c1ccccc1/C=C/CN1CCCC(CO)C1` (stereo not given), the inhibition is active: 35.4%.

For the compound `Cc1ccc(C)c(N2CCN(C(=O)CCCCCn3c(=O)[nH]c4ccccc4c3=O)CC2)c1`, the inhibition is -0.529%.

Turning to `Cc1ccc(C)c(Cn2c(SCC(=O)N(C)Cc3ccccc3)nc3ccccc32)c1`, the inhibition is -22%.

On to `CCc1ccccc1NC(=O)C(=O)NCC(c1cccnc1)N1CCc2ccccc21` (stereo not given), for which the inhibition was -25.7%.

Take `Cc1ccc(-c2nnc(Nc3ccc(S(N)(=O)=O)cc3)c3ccccc23)cc1S(=O)(=O)N1CCOCC1`: the inhibition was -3.29%.

As for `CCOc1ccc(-c2cc(C(=O)N3CCN(c4cccc(C)c4)C(C)C3)c3ccccc3n2)cc1` (stereo not given), the inhibition amounted to 20.1%.

As for `Fc1ccc(C(c2ccc(F)cc2)N2CCN(C/C=C/c3ccccc3)CC2)cc1`, the inhibition was active: 64.5%.

`Cc1ccc(N2CC(C(=O)NCc3nnnn3-c3ccc(C)c(C)c3)CC2=O)cc1C` (stereo not given): the inhibition was determined as 13.4%.

With `CC(C)c1ccc2oc(-c3cc(NC(=O)c4cccnc4)ccc3Cl)nc2c1`, the inhibition was 21%.

On to `COc1cc(C(=O)NCC(c2ccc3c(c2)OCO3)N2CCN(C)CC2)cc(OC)c1OC` (stereo not given), for which the inhibition came to 8.2%.

As to `COc1cccc2c1cc1c(=O)n(CC(=O)NCc3ccc(N(C)C)cc3)nc(C)n12`, the inhibition came to 0.255%.

As for `O=C(O)c1ccc(NS(=O)(=O)c2ccc(N3C(=O)CCC3=O)cc2)cc1`, the inhibition was active: 38.7%.

On to `CCC1CCCCN1CCCNC(=O)c1c(C)oc2ncn(CC(C)C)c(=O)c12` (stereo not given), for which the inhibition amounted to 7.49%.

For the compound `COc1cccc(NC(=O)c2sc3nc(C)c(C(=O)Nc4ccc(C)cc4C)c(-c4ccc(C)o4)c3c2N)c1`, the inhibition was 0.558%.

Take `O=c1n(Cc2ccc(Cl)cc2)nc2n1-c1ccccc1OC2`: the inhibition worked out at 18.6%.

For `COc1ccc(CCC(C)NC2C3CC4CC(C3)CC2C4)cc1` (stereo not given), the inhibition is active: 40%.

For the compound `COc1cc(O)ccc1-c1nc2cc(C)ccn2c1Nc1ccccc1C`, the inhibition is -1.76%.

Consider `CN1CCc2c(c3ccccc3n2Cc2ccccc2)C1`, for which the inhibition is active: 32.9%.

Turning to `CCc1ccc(S(=O)(=O)Nc2cccc(-c3ccc(OC)nn3)c2)s1`, the inhibition is -15.9%.

On to `Cc1cccc2c(=O)cc(CSc3ccccc3NC(=O)c3cccc(Br)c3)[nH]c12`, for which the inhibition came to 8.89%.

Consider `COc1ccc(NC(=O)CSc2nc3nc(C)cc(C)n3n2)cc1OC`, for which the inhibition was -6.3%.

Take `O=C(Nc1cccc(F)c1)C1CCN(S(=O)(=O)c2ccc3[nH]c4c(c3c2)CCCCC4)CC1`: the inhibition was found to be 2.79%.

As for `O=C(NCc1cccc(Cl)c1)c1ccc2c(Cl)c3c(nc2c1)CCCC3`, the inhibition is -1.44%.

Turning to `COc1ccc(CCN2C(=O)N(c3ccc(C)cc3)C(=O)C2CC(=O)Nc2ccc(OC)cc2)cc1` (stereo not given), the inhibition is -5.97%.

With `COc1cc(NC(=O)c2cc(S(=O)(=O)N3CCC(C)CC3)cn2C)cc(OC)c1OC`, the inhibition is -21.7%.

Turning to `CCOC(=O)C1CCCN(C(=O)Cn2ncc3c4ccccc4n(C)c3c2=O)C1` (stereo not given), the inhibition turned out to be 5.54%.

With `Cc1cccc(NC(=O)CN2C(=O)CC(c3ccccc3)Sc3ccccc32)c1` (stereo not given), the inhibition was 6.96%.

Regarding `Cc1ccc(NC(=O)CCc2c(C)nc3ncnn3c2C)cc1Cl`, the inhibition turned out to be 7.84%.

`Cc1ccccc1NC(=O)Cn1nnc(C(=O)NCc2cccs2)c1N`: the inhibition was found to be 10.6%.

With `Cc1ccc(C)c(CSc2cn(CCNC(=O)c3cccs3)c3ccccc23)c1`, the inhibition was -0.522%.

On to `CCc1ccc(NS(=O)(=O)c2ccc(NC(=O)N3CCCC3)cc2)cc1`, for which the inhibition stood at 22.4%.

`CSCCC(N=C1NS(=O)(=O)c2ccccc21)C(=O)NCCc1ccccc1` (stereo not given): the inhibition is active: 42%.

As for `Cc1ccc(OCCN2CCN(CC(O)Cn3c4ccccc4c4ccccc43)CC2)cc1` (stereo not given), the inhibition is active: 62.7%.

With `Cc1ccc(CSc2nc3cc(C(=O)NC4CCCC4)ccc3c(=O)n2Cc2ccccc2)cc1`, the inhibition is -3.03%.

With `CC(CNC(=O)c1csc2c1CCCCC2)c1ccccc1` (stereo not given), the inhibition came to 4.66%.
